# Experimental data as given in the supplement of paper PMC4604168 (melanoma cell lines).
# The list shows a part of the results. Single values are uncertain, as repeats are few or missing.
# Columns and labels:
# Experiment in all cases: cell count relative to DMSO control; melanoma cells; higher = more viable cells
# Conditions in all cases: library dose: standard library concentration; 72 h
# G361 = system: G361
# IPC-298 = system: IPC-298
# IST-MEL1 = system: IST-MEL1
# LB2518-MEL = system: LB2518-MEL
# LOXIMVI = system: LOXIMVI
# MEL-HO = system: MEL-HO
# MZ2-MEL = system: MZ2-MEL
# MeWo = system: MeWo
# RPMI7951 = system: RPMI7951
# RVH-421 = system: RVH-421
# 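Note: cells treated in 1,536-well plates, then fixed and DAPI-stained, with nuclei counted from automated high-throughput microscope images.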
Structure (SMILES),cell count (G361) [%],cell count (IPC-298) [%],cell count (IST-MEL1) [%],cell count (LB2518-MEL) [%],cell count (LOXIMVI) [%],cell count (MEL-HO) [%],cell count (MZ2-MEL) [%],cell count (MeWo) [%],cell count (RPMI7951) [%],cell count (RVH-421) [%]
"COc1cc(Nc2ncc(F)c(Nc3ccc4c(n3)NC(=O)C(C)(C)O4)n2)cc(OC)c1OC [Tamatinib] + CN(C)S(=O)(=O)c1ccc2c(c1)/C(=C/c1cc3c([nH]1)CCCC3)C(=O)N2 [SU6656] (first compound 2 µM, partner dose 2 µM)",55.4,57.3,17.7,62.5,26.8,69.3,64.4,54.8,23.3,40.3
"COc1cc(Nc2ncc(F)c(Nc3ccc4c(n3)NC(=O)C(C)(C)O4)n2)cc(OC)c1OC [Tamatinib] + NC(=O)Nc1cc(-c2cccc(F)c2)sc1C(=O)N[C@H]1CCCNC1 [AZD7762] (first compound 2 µM, partner dose 0.1 µM)",75.3,81.4,15.1,95.6,18.6,82,89,82.5,27.8,111
"COc1cc(Nc2ncc(F)c(Nc3ccc4c(n3)NC(=O)C(C)(C)O4)n2)cc(OC)c1OC [Tamatinib] + N#Cc1c(O)c2c(-c3ccc(-c4ccccc4O)cc3)csc2[nH]c1=O [A769662] (first compound 2 µM, partner dose 10 µM)",72.6,73,64.6,78.7,39.8,69.7,71.8,67.5,33.2,79.3
"O=C(O)c1ccc(-c2c[nH]c3ncc(-c4ccccc4)cc23)cc1C1CCCC1 + CCCCCCCCCCCC1=C(O)C(=O)C=C(O)C1=O [Embelin] (first compound 0.8 µM, partner dose 6 µM)",68.5,83.6,3.91,92.4,106,70.9,80.6,83,76.5,56.5
"C[C@@H]1CCN(C(=O)CC#N)C[C@@H]1N(C)c1ncnc2[nH]ccc12 + CCN(CC)CCCCNc1ncc2cc(-c3cc(OC)cc(OC)c3)c(NC(=O)NC(C)(C)C)nc2n1 [PD173074] (first compound 5 µM, partner dose 0.5 µM)",102,101,107,88,78.6,113,98.7,101,79.5,93.9
"C[C@@H]1CCN(C(=O)CC#N)C[C@@H]1N(C)c1ncnc2[nH]ccc12 + O=C(Nc1ccccc1)c1cc([N+](=O)[O-])ccc1Cl [GW9662] (first compound 5 µM, partner dose 10 µM)",75.2,112,98.5,29.8,28.1,78.9,75.5,74.5,94.3,78.9
"COc1cc(Nc2ncc(F)c(Nc3ccc4c(n3)NC(=O)C(C)(C)O4)n2)cc(OC)c1OC [Tamatinib] + COc1cc(N2CCC(N3CCN(C)CC3)CC2)ccc1Nc1ncc(Cl)c(Nc2ccccc2S(=O)(=O)C(C)C)n1 [NVP-TAE684] (first compound 2 µM, partner dose 0.4 µM)",54.1,67.4,46.2,65.5,86.8,59.5,32.4,51.8,13.9,73.7
"COc1cc(Nc2ncc(F)c(Nc3ccc4c(n3)NC(=O)C(C)(C)O4)n2)cc(OC)c1OC [Tamatinib] + COC(=O)c1sccc1S(=O)(=O)Nc1ccc(Nc2ccccc2)cc1OC [GSK0660] (first compound 2 µM, partner dose 5 µM)",74.6,72.5,99.2,72.4,50.4,75.7,76.8,80.9,59.1,71.6
"O=c1[nH]nc(Sc2ncc([N+](=O)[O-])s2)n1-c1ccc2c(c1)OCCO2 + CN1CCN(c2ccc3nc(-c4c(N)c5c(F)cccc5[nH]c4=O)[nH]c3c2)CC1 [Dovitinib] (first compound 1 µM, partner dose 0.5 µM)",63.2,66,71.7,46,110,68.4,46.5,40.8,55,130
"C[C@@H]1CCN(C(=O)CC#N)C[C@@H]1N(C)c1ncnc2[nH]ccc12 + COc1ccc2c(c1)CCC1C2CCC2(C)C(NCCCCCCN3C(=O)C=CC3=O)CCC12 [U73122] (first compound 5 µM, partner dose 2 µM)",98.8,99.5,96.1,101,88.3,95.9,85.1,92.2,86.8,91.6
"O=c1[nH]nc(Sc2ncc([N+](=O)[O-])s2)n1-c1ccc2c(c1)OCCO2 + N#Cc1c(O)c2c(-c3ccc(-c4ccccc4O)cc3)csc2[nH]c1=O [A769662] (first compound 1 µM, partner dose 10 µM)",118,71.9,97.7,105,91.8,93.3,103,97.4,90.9,93.3
"O=c1[nH]nc(Sc2ncc([N+](=O)[O-])s2)n1-c1ccc2c(c1)OCCO2 + CCN(CC)CCCCNc1ncc2cc(-c3cc(OC)cc(OC)c3)c(NC(=O)NC(C)(C)C)nc2n1 [PD173074] (first compound 1 µM, partner dose 0.5 µM)",117,118,101,118,119,118,102,93.8,116,89.8
"O=c1[nH]nc(Sc2ncc([N+](=O)[O-])s2)n1-c1ccc2c(c1)OCCO2 + Nc1cccc2c1CN(C1CCC(=O)NC1=O)C2=O [lenalidomide] (first compound 1 µM, partner dose 5 µM)",86.7,106,111,106,95.4,107,101,115,84.2,119
"Cn1cncc1[C@@](N)(c1ccc(Cl)cc1)c1ccc2c(c1)c(-c1cccc(Cl)c1)cc(=O)n2C [tipifarnib] + CN(C)S(=O)(=O)c1ccc2c(c1)/C(=C/c1cc3c([nH]1)CCCC3)C(=O)N2 [SU6656] (first compound 0.05 µM, partner dose 2 µM)",57.1,56.7,54.6,51.7,90.5,87.7,71.8,75.2,54.9,71.3
"CC1(C)NC(=O)N(c2ccc([N+](=O)[O-])c(C(F)(F)F)c2)C1=O [nilutamide] + CCc1ccc(CCOc2ccc(CC3SC(=O)NC3=O)cc2)nc1 [pioglitazone] (first compound 5 µM, partner dose 10 µM)",83.9,78.8,91.3,71.9,101,83.1,84.3,86.2,108,113
"Cn1cncc1[C@@](N)(c1ccc(Cl)cc1)c1ccc2c(c1)c(-c1cccc(Cl)c1)cc(=O)n2C [tipifarnib] + Cc1cc([N+](=O)[O-])ccc1NS(=O)(=O)c1cc(Cl)ccc1Cl [FH535] (first compound 0.05 µM, partner dose 5 µM)",46.3,51.4,61.6,76.3,90.9,56.1,68.4,77.3,78.5,92.1
"O=c1[nH]nc(Sc2ncc([N+](=O)[O-])s2)n1-c1ccc2c(c1)OCCO2 + COc1cc2ncnc(Nc3ccc(Oc4ccccc4)cc3)c2cc1OC [SrcI1] (first compound 1 µM, partner dose 10 µM)",58.9,82.1,79,162,199,71.5,90.3,68.7,31.9,114
"O=c1[nH]nc(Sc2ncc([N+](=O)[O-])s2)n1-c1ccc2c(c1)OCCO2 + CC(C)(C)c1cnc(CSc2cnc(NC(=O)C3CCNCC3)s2)o1 [SNS-032] (first compound 1 µM, partner dose 0.05 µM)",91,131,88.8,85.2,80.7,102,118,95.5,47.6,86.8
"Cn1cncc1[C@@](N)(c1ccc(Cl)cc1)c1ccc2c(c1)c(-c1cccc(Cl)c1)cc(=O)n2C [tipifarnib] + COc1cc2ncnc(Nc3ccc(Oc4ccccc4)cc3)c2cc1OC [SrcI1] (first compound 0.05 µM, partner dose 10 µM)",29.5,62.7,60.5,64.7,68.2,79.5,76.4,55.6,30.9,94.1
"Cn1cncc1[C@@](N)(c1ccc(Cl)cc1)c1ccc2c(c1)c(-c1cccc(Cl)c1)cc(=O)n2C [tipifarnib] + O=c1cc(-c2cccc3c2Sc2ccccc2S3)oc(N2CCOCC2)c1 [KU55933] (first compound 0.05 µM, partner dose 5 µM)",74.3,85.9,87.5,71.2,92.1,85.9,85.3,82,71.2,82.6
"CC1(C)NC(=O)N(c2ccc([N+](=O)[O-])c(C(F)(F)F)c2)C1=O [nilutamide] + Cn1cc(/C=C2\C(=O)Nc3cccnc32)c2ccccc21 [GW441756] (first compound 5 µM, partner dose 2 µM)",97.2,103,112,84.7,126,101,92.3,114,104,121
"O=c1[nH]nc(Sc2ncc([N+](=O)[O-])s2)n1-c1ccc2c(c1)OCCO2 + C[C@@H](Oc1cc(-c2cnn(C3CCNCC3)c2)cnc1N)c1c(Cl)ccc(F)c1Cl [Crizotinib] (first compound 1 µM, partner dose 1 µM)",91.3,108,88.7,77.2,130,122,102,88.6,98,80.5
"CC1(C)NC(=O)N(c2ccc([N+](=O)[O-])c(C(F)(F)F)c2)C1=O [nilutamide] + O=C(O)C(=O)Nc1sc2c(c1C(=O)O)CCNC2 [TCS401] (first compound 5 µM, partner dose 8.33333 µM)",89.7,96.7,91,104,104,104,99.6,112,118,96.2
